{"source": "PubChem BioAssay AID596", "about": "(National Center for Advancing Translational Sciences (NCATS), 2007)", "note": "In all, about 71,000 compounds went through this assay and about 1,400 (2%) were called active. The shares of active, inactive and inconclusive entries below differ from those in the screen. Calls come from the whole dose curve; as a rule, active = well fitted curve in the direction sought with a large enough effect; inconclusive = small, poorly fitted or top-dose-only effect; inactive = no such curve, though single readings can be large or run the other way. A potency beside an inconclusive call is a rough fit, not a confirmed value. More than one record can exist for a structure, and the calls need not agree. % is set by controls: 0 for no effect and ±100 for the full control effect; potency is the fitted concentration of half-maximal effect."}
{"biological_target": "Microtubule-associated protein tau (Homo sapiens) (UniProt P10636)", "sequence (P10636 whole entry, looked up)": "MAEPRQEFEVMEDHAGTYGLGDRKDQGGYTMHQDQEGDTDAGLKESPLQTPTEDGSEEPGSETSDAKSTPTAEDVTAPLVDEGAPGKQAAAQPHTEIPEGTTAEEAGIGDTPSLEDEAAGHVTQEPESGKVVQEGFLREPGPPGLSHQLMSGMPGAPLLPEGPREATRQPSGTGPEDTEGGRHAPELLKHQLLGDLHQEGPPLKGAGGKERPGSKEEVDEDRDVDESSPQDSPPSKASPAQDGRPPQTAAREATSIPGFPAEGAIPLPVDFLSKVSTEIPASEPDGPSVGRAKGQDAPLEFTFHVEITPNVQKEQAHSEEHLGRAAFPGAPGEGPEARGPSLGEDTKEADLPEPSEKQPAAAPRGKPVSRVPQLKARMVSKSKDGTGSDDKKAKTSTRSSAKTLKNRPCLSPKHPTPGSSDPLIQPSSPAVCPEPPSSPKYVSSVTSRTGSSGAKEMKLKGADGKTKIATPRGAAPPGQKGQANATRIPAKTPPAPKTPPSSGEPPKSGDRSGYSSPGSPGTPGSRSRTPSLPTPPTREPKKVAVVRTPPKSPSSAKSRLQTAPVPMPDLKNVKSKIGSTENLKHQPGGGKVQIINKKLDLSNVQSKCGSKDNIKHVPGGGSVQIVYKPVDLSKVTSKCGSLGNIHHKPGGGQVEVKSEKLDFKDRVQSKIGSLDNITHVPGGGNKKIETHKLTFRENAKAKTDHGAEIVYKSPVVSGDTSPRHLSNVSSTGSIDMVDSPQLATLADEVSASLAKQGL", "test": "qHTS Assay for Tau Filament Binding;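 note: actives lower thioflavin S fluorescence by blocking filaments or displacing dye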", "settings": "recombinant tau filaments, thioflavin S fluorescence, 15 h, filaments grown with octadecylsulfate alongside compound; series mostly up to 57.1 µM", "outline": "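His-tagged recombinant human tau (exons 2, 3, 10; 1 uM final) fibrillized with 30 uM sodium octadecylsulfate, 15 h at 37 C, in pH 7.4 HEPES buffer with 10 uM thioflavine S and 5 mM DTT. Reduced ThS fluorescence (450/510 nm) marks activity.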"}
{"smiles": "CCOC(=O)c1cc(-c2ccc(N)cc2)sc1N", "Potency": "active: 25.1 µM"}
{"smiles": "Cc1ccc(C2CCN(C(=O)Nc3ccccc3)C2)cc1", "note": "(stereo not given)", "Potency": "inactive"}
{"smiles": "COc1ccc(-c2coc3ccc(O[C@@H]4O[C@@H](COC(C)=O)[C@@H](OC(C)=O)[C@@H](OC(C)=O)[C@H]4OC(C)=O)cc3c2=O)cc1", "Potency": "inconclusive: 39.8 µM [decreasing]"}
{"smiles": "CCOc1ccccc1N(C)C(=O)C1CCN(S(=O)(=O)c2cccc3nonc23)CC1", "Potency": "inconclusive: 39.8 µM [decreasing]"}
{"smiles": "CC(=O)N1CCC2(CCCN(c3ccncc3)C2)CC1", "Potency": "inactive"}
{"smiles": "O=C(c1cccc(F)c1)N1CCC2(CC1)CN(c1ccccn1)C2", "Potency": "inactive"}
{"smiles": "CCCCCCN(C(=O)CCCCCN1C(=O)NC(c2ccc(-c3ccccc3)cc2)C(C(=O)OCc2ccccc2)=C1C)C(C(=O)NCCCC)c1ccc(OCC(=O)O)c(C(=O)O)c1", "note": "(stereo not given)", "Potency": "inactive"}
{"smiles": "O=c1c(-c2ccccc2)nc2cncnc2n1Cc1ccccc1Cl", "Potency": "inconclusive: 25.1 µM [decreasing]"}
{"smiles": "N#Cc1c(/N=C/c2ccco2)sc2c1CCC2", "Potency": "active: 15.8 µM"}
{"smiles": "CCOC(=O)C1=C(C)NC(C)=C(C(=O)OC)[C@H]1c1cccc([N+](=O)[O-])c1", "Potency": "inconclusive: 39.8 µM [decreasing]"}
{"smiles": "Cc1cc2ccccc2c(=O)n1CC(=O)Nc1ccc2c(c1)OCO2", "Potency": "inactive"}
{"smiles": "COc1ccc(-n2c(=O)c(-c3ccccc3)nc3cnc(N4CCNCC4)nc32)cc1", "Potency": "inconclusive: 39.8 µM [decreasing]"}
{"smiles": "CCC(C)COC(=O)c1ccc(C(=O)O)cc1", "note": "(stereo not given)", "Potency": "inactive"}
{"smiles": "CCc1ccc2c(CN3CCc4ccccc43)cc(=O)oc2c1", "Potency": "inconclusive: 12.6 µM [decreasing]"}
{"smiles": "CC(C)(C)C1CCc2c(sc3c2C(=O)NC(c2ccco2)N3)C1", "note": "(stereo not given)", "Potency": "inconclusive: 0.794 µM [decreasing]"}
{"smiles": "C(=N\\c1c(-c2ccccc2)nc2n1CCS2)/c1ccccc1", "Potency": "inconclusive: 31.6 µM [decreasing]"}
{"smiles": "CN1CCC(=C2c3ccccc3C=Cc3ccccc32)CC1", "Potency": "inconclusive: 39.8 µM [decreasing]"}
{"smiles": "Nc1c(Cl)cc(Cl)cc1Cl", "Potency": "inactive"}
{"smiles": "COc1ccccc1-c1nc(NCc2cnc(C)cn2)c2ccccc2n1", "Potency": "inconclusive: 39.8 µM [decreasing]"}
{"smiles": "Cc1c(C(=O)Nc2ccccc2)oc2c1C(=O)CC(C)(C)C2", "Potency": "inconclusive: 25.1 µM [decreasing]"}
{"smiles": "Oc1ccc(/C=C\\c2cc(O)cc(O)c2)cc1", "Potency": "inconclusive: 39.8 µM [decreasing]"}
{"smiles": "Cc1cc(-c2ccccc2)nc2[n+]1CCN2C", "Potency": "inconclusive: 15.8 µM [decreasing]"}
{"smiles": "C=CCn1c(NC(=O)c2ccccc2Cl)c(C#N)c2nc3ccccc3nc21", "Potency": "inactive"}
{"smiles": "Cc1ccn2cc(-c3nonc3C)cc2c1", "Potency": "inconclusive: 39.8 µM [decreasing]"}
{"smiles": "CCn1c(SCc2ccc(OC)cc2)nnc1-c1ccncc1", "Potency": "inactive"}
{"smiles": "O=C1NCCCC2c3cc(O)c4ccccc4c3OC12N1CCCCC1", "note": "(stereo not given)", "Potency": "inconclusive: 6.31 µM [decreasing]"}
{"smiles": "CC(C)n1c(NCc2ccc(N(C)C)cc2)nc2ccccc21", "Potency": "inconclusive: 12.6 µM [decreasing]"}
{"smiles": "CCSc1nnc(-c2cccc(S(=O)(=O)N(CC)CC)c2)n1Cc1ccccc1", "Potency": "inactive"}
{"smiles": "Cc1ccc(SCCNC(=O)CN2C(=O)c3ccccc3S2(=O)=O)cc1", "Potency": "inconclusive: 31.6 µM [decreasing]"}
{"smiles": "CCC(=O)n1nc(-c2ccco2)nc1SCc1ccccc1", "Potency": "inactive"}
{"smiles": "O=C(COC(=O)c1cc(-c2cccs2)nc2ccccc12)NCc1ccco1", "Potency": "active: 15.8 µM"}
{"smiles": "COC(=O)c1sc(NC(=O)c2cc3c(s2)CCCC3)nc1C", "Potency": "inactive"}
{"smiles": "O=C1SC(c2ccccc2)=N/C1=C/c1ccco1", "Potency": "active: 25.1 µM"}
{"smiles": "C=C1CC[C@H](O)C/C1=C/C=C1\\CCC[C@]2(C)[C@@H]([C@H](C)CCCC(C)C)CC[C@@H]12", "Potency": "inconclusive: 12.6 µM [decreasing]"}
{"smiles": "CN(C)c1ccc2c(O)cc(=O)n(C)c2c1", "Potency": "inconclusive: 31.6 µM [decreasing]"}
{"smiles": "CCOC(=O)c1ccc(-n2c(=S)sc3c(=O)[nH]c(C)nc32)cc1", "Potency": "inactive"}
{"smiles": "O=C(Nc1ccccn1)NC12CC3CC(CC(C3)C1)C2", "Potency": "inactive"}
{"smiles": "c1ccc(-c2nc(NCc3ccco3)c3ccccc3n2)nc1", "Potency": "inconclusive: 10 µM [decreasing]"}
{"smiles": "Cc1ccc2nc(NC(=O)C3CCCN(S(=O)(=O)c4cccc5nonc45)C3)sc2c1", "note": "(stereo not given)", "Potency": "inconclusive: 0.398 µM [decreasing]"}
{"smiles": "CCOC(=O)c1c(NC(=O)OC)sc2c1CCC2", "Potency": "inactive"}
{"smiles": "O=c1c(-c2ccc(Cl)cc2)nc2cncnc2n1Cc1ccccc1", "Potency": "inconclusive: 5.01 µM [decreasing]"}
{"smiles": "COc1ccc(Oc2ncc3nc(-c4ccccc4)c(=O)n(C4CC4)c3n2)cc1", "Potency": "inconclusive: 39.8 µM [decreasing]"}
{"smiles": "O=C(CNCC1CCCO1)Nc1ccc(N2CCCCCC2)cc1", "note": "(stereo not given)", "Potency": "active: 31.6 µM"}
{"smiles": "COc1cccc(OC)c1OCCNC[C@@H]1COc2ccccc2O1", "Potency": "inconclusive: 39.8 µM [decreasing]"}
{"smiles": "N#Cc1nc(N2CCCCC2)nc(N2CCOCC2)n1", "Potency": "active: 2.51 µM"}
{"smiles": "CC1OC(Nc2cccc3ccccc23)C(O)C(O)C1O", "note": "(stereo not given)", "Potency": "inconclusive: 25.1 µM [decreasing]"}
{"smiles": "CC(C)n1c(=N)c(C(=O)NCCc2ccccc2)cc2c(=O)n3ccccc3nc21", "Potency": "active: 3.16 µM"}
{"smiles": "COc1ccc(N2CCN(Cc3nc(-c4ccc(Cl)cc4Cl)no3)CC2)cc1", "Potency": "active: 12.6 µM"}
{"smiles": "NC(=NC1C2CC3CC(C2)CC1C3)Nc1ccc(I)cc1", "note": "(stereo not given)", "Potency": "inconclusive: 39.8 µM [decreasing]"}
{"smiles": "CCc1ccccc1OC[C@@H](O)CN[C@H]1CCCc2ccccc21", "Potency": "active: 12.6 µM"}
{"smiles": "Oc1ccc(N=Cc2ccc(O)c(O)c2)cc1", "Potency": "active: 6.31 µM"}
{"smiles": "Cn1c(C(=O)Nc2ccc3c(c2)OCCO3)cc2sccc21", "Potency": "inconclusive: 39.8 µM [decreasing]"}
{"smiles": "O=c1c(-c2cc(F)cc(F)c2)nc2cncnc2n1Cc1ccccc1Cl", "Potency": "inconclusive: 7.94 µM [decreasing]"}
{"smiles": "N[C@H](C(=O)O)c1ccc(O)c(C(=O)O)c1", "Potency": "inconclusive: 39.8 µM [decreasing]"}
{"smiles": "CS(=O)(=O)c1ncc(Cl)c(C(=O)Nc2ccc(N3CCOCC3)cc2)n1", "Potency": "inconclusive: 31.6 µM [decreasing]"}
{"smiles": "O=C(c1cccc(F)c1)N1CCC2(CC1)CCN(c1cccc(-c3ccccc3)c1)CC2", "Potency": "active: 25.1 µM"}
{"smiles": "O=C(Nc1ncc2c(n1)CC(c1ccco1)CC2=O)c1ccc(Cl)cc1", "note": "(stereo not given)", "Potency": "inconclusive: 25.1 µM [decreasing]"}
{"smiles": "COc1ccc2c(c1)N(C[C@@H](C)CN(C)C)c1ccccc1S2", "Potency": "active: 10 µM"}
{"smiles": "C[C@@H](NCc1cc(Br)cc2[nH]c(=O)c(=O)[nH]c12)P(=O)(O)O", "Potency": "inconclusive: 39.8 µM [decreasing]"}
{"smiles": "O=C(Cn1cnc2sc(-c3ccccc3)cc2c1=O)N1CCOCC1", "Potency": "inactive"}
{"smiles": "CCS(=O)(=O)N1CCN(C(C)CCc2ccccc2)CC1", "note": "(stereo not given)", "activity change, negative = inhibition": "inactive: -19% [at 11.4 µM]"}
{"smiles": "CNc1nc(N2CCc3ccccc32)ncc1F", "Potency": "inactive"}
{"smiles": "[O-][n+]1onc2c1CCc1c-2nn(-c2ccccc2Cl)[n+]1[O-]", "Potency": "inconclusive: 31.6 µM [decreasing]"}
{"smiles": "CS(=O)(=O)N1CCC2(CCN(C(=O)Nc3cccc(C#N)c3)CC2)CC1", "Potency": "inactive"}
{"smiles": "CSc1ccc(C2NC(=O)c3c(sc4c3CCN(C)C4)N2)cc1", "note": "(stereo not given)", "Potency": "inconclusive: 0.631 µM [decreasing]"}
{"smiles": "CN(C1=NC(=O)C(CC(=O)Nc2ccc(Br)cc2)S1)c1ccc(O)cc1", "note": "(stereo not given)", "Potency": "inconclusive: 31.6 µM [decreasing]"}
{"smiles": "CC(C)NCC(O)Cn1c2c(c3ccccc31)CCc1c-2cnn1-c1ccccc1", "note": "(stereo not given)", "Potency": "inconclusive: 2 µM [decreasing]"}
{"smiles": "CCN1C(=O)/C(=C2/C=CC=CN2C)SC1=S", "Potency": "inconclusive: 3.98 µM [decreasing]"}
{"smiles": "CC(C)NC[C@H](O)c1ccc2ccccc2c1", "Potency": "inconclusive: 39.8 µM [decreasing]"}
{"smiles": "CC(=O)NCCNc1ncnc2ccc(-c3ccccc3C#N)cc12", "Potency": "inactive"}
{"smiles": "Cc1cc2ccccc2c[n+]1CC(O)C[n+]1cc2ccccc2cc1C", "Potency": "inconclusive: 3.16 µM [decreasing]"}
{"smiles": "CC(C)(C)c1ccc(OCc2nc(-c3ccccn3)no2)c(Br)c1", "Potency": "inactive"}
{"smiles": "COc1ccc2nc3c(cc2c1)Cc1ccccc1-3", "Potency": "inconclusive: 39.8 µM [decreasing]"}
{"smiles": "CCOc1ccc2nc(NC(=O)Nc3cccs3)sc2c1", "Potency": "inactive"}
{"smiles": "CCNc1ncc2nc(-c3cccc(C#N)c3)c(=O)n(C)c2n1", "Potency": "inactive"}
{"smiles": "COc1ccc(Cl)cc1-c1nc(-c2ccc(NC(=O)c3ccncc3)cc2)no1", "Potency": "inactive"}
{"smiles": "COc1nccc(-c2c(-c3ccc(F)cc3)ncn2C2CCC(O)CC2)n1", "note": "(stereo not given)", "Potency": "inconclusive: 39.8 µM [decreasing]"}
{"smiles": "Cn1c(=O)c(-c2ccc(Cl)cc2)nc2cnc(Oc3ccccc3)nc21", "Potency": "inconclusive: 7.94 µM [decreasing]"}
{"smiles": "OCCNCCCOc1cccc(Cl)c1Cl", "Potency": "inconclusive: 39.8 µM [decreasing]"}
{"smiles": "O=C(CNC(=O)c1ccco1)OCC(=O)c1ccc2c(c1)CCCC2", "Potency": "inactive"}
{"smiles": "COc1cc(NC(=O)NCCN2CCN(c3ccc(Cl)cc3)CC2)ccc1C", "Potency": "active: 12.6 µM"}
{"smiles": "Cn1c(NCCCO)nc2c(c1=O)C1(CCCCC1)Cc1ccccc1-2", "Potency": "inactive"}
{"smiles": "Oc1c(Cl)cc(Cl)c2c1NCCC2", "Potency": "inconclusive: 31.6 µM [decreasing]"}
{"smiles": "COc1cc(C(=O)OCCCN2CCCN(CCCOC(=O)c3cc(OC)c(OC)c(OC)c3)CC2)cc(OC)c1OC", "Potency": "inconclusive: 39.8 µM [decreasing]"}
{"smiles": "COc1ccc(OC)c2[nH]c(=O)c(CCNC(C)=O)cc12", "Potency": "inconclusive: 20 µM [decreasing]"}
